The source of these data is US20190367516A1 (Bayer Pharma Aktiengesellschaft, priority 2015, published 2019).

For this experiment, the target named is T1, human M2 receptor (Homo sapiens, UniProt P08172).
T1 sequence (P08172 1-466): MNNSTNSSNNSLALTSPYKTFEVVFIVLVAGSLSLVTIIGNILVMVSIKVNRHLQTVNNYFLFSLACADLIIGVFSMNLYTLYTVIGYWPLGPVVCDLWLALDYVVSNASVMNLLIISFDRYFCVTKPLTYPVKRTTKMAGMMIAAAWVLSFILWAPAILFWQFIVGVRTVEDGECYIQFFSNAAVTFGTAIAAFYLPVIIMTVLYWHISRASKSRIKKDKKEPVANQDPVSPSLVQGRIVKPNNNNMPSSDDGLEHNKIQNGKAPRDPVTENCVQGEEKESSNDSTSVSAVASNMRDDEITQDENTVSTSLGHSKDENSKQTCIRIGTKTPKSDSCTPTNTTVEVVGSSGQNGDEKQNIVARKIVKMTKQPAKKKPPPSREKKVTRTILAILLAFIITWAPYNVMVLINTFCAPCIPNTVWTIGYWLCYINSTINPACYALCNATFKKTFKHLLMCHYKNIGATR
Particulars: read-out: Efficiency, M2-GIRK1/4 activation test; boosting of the acetylcholine effect at an EC20 acetylcholine concentration.

Regarding `CC[C@@H](NC(=O)c1cn(-c2ccc(F)cc2F)c2nc(N3C[C@@H](F)C[C@H]3C)ccc2c1=O)C(F)(F)F` [Example 31, 1-(2,4-Difluorophenyl)-7-[(2R,4S)-4-fluoro-2-methylpyrrolidin-1-yl]-4-oxo-N-[(2R)-1,1,1-trifluorobutan-2-yl]-1,4-dihydro-1,8-naphthyridine-3-carboxamide], the Emax was determined as 97%.

As to `CC[C@@H](NC(=O)c1cn(-c2ccc(F)cc2F)c2nc(N3CC(F)C3)ccc2c1=O)C(F)(F)F` [Example 32, 1-(2,4-Difluorophenyl)-7-(3-fluoroazetidin-1-yl)-4-oxo-N-[(2R)-1,1,1-trifluorobutan-2-yl]-1,4-dihydro-1,8-naphthyridine-3-carboxamide], the Emax was 93.5%.

For the compound `CC[C@@H](NC(=O)c1cn(-c2ccc(F)cc2F)c2nc(N3CC[C@@H](F)[C@H](O)C3)ccc2c1=O)C(F)(F)F` [Example 33, 1-(2,4-Difluorophenyl)-7-[(3R,4R)-4-fluoro-3-hydroxypiperidin-1-yl]-4-oxo-N-[(2R)-1,1,1-trifluorobutan-2-yl]-1,4-dihydro-1,8-naphthyridine-3-carboxamide], the Emax was 96.7%.

Regarding `CC[C@@H](NC(=O)c1cn(-c2ccc(F)cc2F)c2nc(N3CCC(O)(O)C(F)(F)C3)ccc2c1=O)C(F)(F)F` [Example 35, 7-(3,3-Difluoro-4,4-dihydroxypiperidin-1-yl)-1-(2,4-difluorophenyl)-4-oxo-N-[(2R)-1,1,1-trifluorobutran-2-yl]-1,4-dihydro-1,8-naphthyridine-3-carboxamide], the Emax was determined as 98.8%.

In the case of `CN(C)c1ccc2c(=O)c(C(=O)NC34CC5CC(CC(F)(C5)C3)C4)cn(-c3ccc(F)cc3F)c2n1` [Example 37, 1-(2,4-Difluorophenyl)-7-(dimethylamino)-N-(3-fluorotricyclo[3.3.1.1^3,7]dec-1-yl)-4-oxo-1,4-dihydro-1,8-naphthyridine-3-carboxamide], the Emax turned out to be 96.3%.

Turning to `CN(C)c1ccc2c(=O)c(C(=O)NC34CC5CC(F)(CC(F)(C5)C3)C4)cn(-c3ccc(F)cc3F)c2n1` [Example 38, 1-(2,4-Difluorophenyl)-N-(3,5-difluorotricyclo[3.3.1.1^3,7]dec-1-yl)-7-(dimethylamino)-4-oxo-1,4-dihydro-1,8-naphthyridine-3-carboxamide], the Emax was 100%.

As to `CN(C)c1ccc2c(=O)c(C(=O)NC34CC5CC(C3)C(F)(F)C(C5)C4)cn(-c3ccc(F)cc3F)c2n1` [Example 39, 1-(2,4-Difluorophenyl)-N-(4,4-difluorotricyclo[3.3.1.1^3,7]dec-1-yl)-7-(dimethylamino)-4-oxo-1,4-dihydro-1,8-naphthyridine-3-carboxamide], the Emax is 92.1%.

`CN(C)c1ccc2c(=O)c(C(=O)NC34CC5CC(C3)C(F)(F)C(C5)C4)cn(-c3ccc(F)cc3Cl)c2n1` [Example 40, 1-(2-Chloro-4-fluorophenyl)-N-(4,4-difluorotricyclo[3.3.1.1^3,7]dec-1-yl)-7-(dimethylamino)-4-oxo-1,4-dihydro-1,8-naphthyridine-3-carboxamide]: the Emax was 94.2%.

As for `CN(C)c1ccc2c(=O)c(C(=O)NC34CC5CC(CC(C)(C5)C3)C4)cn(-c3ccc(F)cc3F)c2n1` [Example 41, 1-(2,4-Difluorophenyl)-7-(dimethylamino)-N-(3-methyltricyclo[3.3.1.1^3,7]dec-1-yl)-4-oxo-1,4-dihydro-1,8-naphthyridine-3-carboxamide], the Emax turned out to be 99.4%.

As for `CN(C)c1ccc2c(=O)c(C(=O)NC34CCC(C)(CC3)CC4)cn(-c3ccc(F)cc3F)c2n1` [Example 42, 1-(2,4-Difluorophenyl)-7-(dimethylamino)-N-(4-methylbicyclo[2.2.2]oct-1-yl)-4-oxo-1,4-dihydro-1,8-naphthyridine-3-carboxamide], the Emax is 94.5%.

Turning to `CN(C)c1ccc2c(=O)c(C(=O)NC(C)(C)C)cn(-c3ccc(F)cc3F)c2n1` [Example 43, N-tery-Butyl-1-(2,4-difluorophenyl)-7-(dimethylamino)-4-oxo-1,4-dihydro-1,8-naphthyridine-3-carboxamide], the Emax amounted to 96.6%.

In the case of `C[C@H](NC(=O)c1cn(-c2ccc(F)cc2F)c2nc(N(C)C)ccc2c1=O)C(F)(F)F` [Example 44, 1-(2,4-Difluorophenyl)-7-(dimethylamino)-4-oxo-N-[(2S)-1,1,1-trifluoropropan-2-yl]-1,4-dihydro-1,8-naphthyridine-3-carboxamide], the Emax was 98.3%.

As for `CC[C@H](NC(=O)c1cn(-c2ccc(F)cc2F)c2nc(N(C)C)ccc2c1=O)C(F)(F)F` [Example 45, 1-(2,4-Difluorophenyl)-7-(dimethylamino)-4-oxo-N-[(2S)-1,1,1-trifluorobutan-2-yl]-1,4-dihydro-1,8-naphthyridine-3-carboxamide], the Emax was found to be 99.7%.

As to `CN(C)c1ccc2c(=O)c(C(=O)NC34CCC(F)(CC3)CC4)cn(-c3ccc(F)cc3F)c2n1` [Example 47, 1-(2,4-Difluorophenyl)-7-(dimethylamino)-N-(4-fluorobicyclo[2.2.2]oct-1-yl)-4-oxo-1,4-dihydro-1,8-naphthyridine-3-carboxamide], the Emax was 100%.

Consider `CN(C)c1ccc2c(=O)c(C(=O)NCc3c(Cl)cccc3Cl)cn(-c3ccc(F)cc3F)c2n1` [Example 49, N-(2,6-Dichlorobenzyl)-1-(2,4-difluorophenyl)-7-(dimethylamino)-4-oxo-1,4-dihydro-1,8-naphthyridine-3-carboxamide], for which the Emax is 86%.

On to `CN(C)c1ccc2c(=O)c(C(=O)NCc3ccc(F)cc3F)cn(-c3ccc(F)cc3F)c2n1` [Example 50, N-(2,4-Dmuorobenzyl)-1-(2,4-difluorophenyl)-7-(dimethylamino)-4-oxo-1,4-dihydro-1,8-naphthyridine-3-carboxamide], for which the Emax was 95%.

On to `Cc1cccc(C)c1CNC(=O)c1cn(-c2ccc(F)cc2F)c2nc(N(C)C)ccc2c1=O` [Example 51, 1-(2,4-Difluorophenyl)-7-(dimethylamino)-N-(2,6-dimethylbenzyl)-4-oxo-1,4-dihydro-1,8-naphthyridine-3-carboxamide], for which the Emax was 95%.

For the compound `CN(C)c1ccc2c(=O)c(C(=O)Nc3c(F)cccc3F)cn(-c3ccc(F)cc3F)c2n1` [Example 52, 1-(2,4-Difluorophenyl)-N-(2,6-difluorophenyl)-7-(dimethylamino)-4-oxo-1,4-dihydro-1,8-naphthyridine-3-carboxamide], the Emax is 98.5%.

For `CN(C)c1ccc2c(=O)c(C(=O)NC(C)(C)c3c(F)cccc3F)cn(-c3ccc(F)cc3F)c2n1` [Example 53, 1-(2,4-Difluorophenyl)-N-[2-(2,6-difluorophenyl)propan-2-yl]-7-(dimethylamino)-4-oxo-1,4-dihydro-1,8-naphthyridine-3-carboxamide], the Emax worked out at 100%.

With `Cc1cccc(C)c1NC(=O)c1cn(-c2ccc(F)cc2F)c2nc(N(C)C)ccc2c1=O` [Example 54, 1-(2,4-Difluorophenyl)-7-(dimethylamino)-N-(2,6-dimethylphenyl)-4-oxo-1,4-dihydro-1,8-naphthyridine-3-carboxamide], the Emax was found to be 98.3%.

On to `CN(C)c1ccc2c(=O)c(C(=O)Nc3c(Cl)cccc3Cl)cn(-c3ccc(F)cc3F)c2n1` [Example 55, N-(2,6-Dichlorophenyl)-1-(2,4-difluorophenyl)-7-(dimethylamino)-4-oxo-1,4-dihydro-1,8-naphthyridine-3-carboxamide], for which the Emax was determined as 99.8%.

As to `CN(C)c1ccc2c(=O)c(C(=O)Nc3ccccc3C(F)(F)F)cn(-c3ccc(F)cc3F)c2n1` [Example 57, 1-(2,4-Difluorophenyl)-7-(dimethylamino)-4-oxo-N-[2-(trifluoromethyl)phenyl]-1,4-dihydro-1,8-naphthyridine-3-carboxamide], the Emax was determined as 93.8%.

Turning to `CN(C)c1ccc2c(=O)c(C(=O)NCc3c(Cl)cccc3C(F)(F)F)cn(-c3ccc(F)cc3F)c2n1` [Example 58, N-[2-Chloro-6-(trifluoromethyl)benzyl]-1-(2,4-difluorophenyl)-7-(dimethylamino)-4-oxo-1,4-dihydro-l,8-naphthyridine-3-carboxamide], the Emax is 100%.

With `CN(C)c1ccc2c(=O)c(C(=O)NCc3ccccc3C(F)(F)F)cn(-c3ccc(F)cc3F)c2n1` [Example 59, 1-(2,4-Difluorophenyl)-7-(dimethylamino)-4-oxo-N-[2-(trifluoromethyl)benzyl]-1,4-dihydro-1,8-naphthyridine-3-carboxamide], the Emax is 97%.

As for `CN(C)c1ccc2c(=O)c(C(=O)NCc3c(F)cccc3C(F)(F)F)cn(-c3ccc(F)cc3F)c2n1` [Example 60, 1-(2,4-Difluorophenyl)-7-(dimethylamino)-N-[2-fluoro-6-(trifluoromethyl)benzyl]-4-oxo-1,4-dihydro-1,8-naphthyridine-3-carboxamide], the Emax was 100%.

Take `O=C(NC12CC3CC(CC(C3)C1)C2)c1cn(-c2ccc(F)cc2F)c2nc(N3CC[C@H](F)C3)ccc2c1=O` [Example 61, 1-(2,4-Difluorophenyl)-7-[(3S)-3-fluoropyrrolidin-1-yl]-4-oxo-N-(tricyclo[3.3.1.1^3,7]dec-1-yl)-1,4-dihydro-1,8-naphthyridine-3-carboxamide]: the Emax amounted to 98.2%.
